Reference: patent publication US10654915B2, “Antibodies useful in passive influenza immunization” (priority 2011, dated 2020)

System: H3N2 (A/Perth/16/2009)
Experiment: Inhibition of infection and plaque formation in MDCK cell monolayers with or without trypsin
Details: FIG. 4B

B1: MAB579 (antibody, V domains shown)
VH: QVQLVQSGAEVKKPGASVKVSCKTSGYTFTAYTIHWVRQAPGQRLEWMGWINAGNGHTKYSQRFKGRVTITRDTSARTTYMELRSLTSEDTALYFCARGPETYYYDKTNWLNSHPDEYFQHWGHGTQVTVSS
VL: DIQMTQSPSTLSASVGDRVTITCRASQTINNYLAWYQQKPGKAPKLLIYKASSLESGVPSRFSGSGSGTEFTLTISSLQPDDFATYYCQEYNNDSPLTFGGGTKVEIK
modifications: CHAIN (1)...(132) MAB579 heavy chain sequence of variable domain; DOMAIN (31)...(35) CDR1; DOMAIN (50)...(67) CDR2; DOMAIN (99)...(121) CDR3; CHAIN (1)...(108) MAB579 light chain sequence of variable domain; DOMAIN (24)...(34) CDR1; DOMAIN (50)...(57) CDR2; DOMAIN (89)...(98) CDR3
With B1 the “inhibition of infection in presence or absence of trypsin” value was “inhibits infection in both the presence and absence of trypsin”.
